Data published in PubChem BioAssay (NCI).
Values joined by “and” are separate entries in the source; they are usually repeats but may differ in a detail not shown here. Equal values may be shown once.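 96-well plates; 48 h exposure; 5 concentrations. Endpoints by linear interpolation between flanking doses. Not reached: highest tested concentration assigned. The concentration for 50% growth inhibition is given as GI50. TGI is the concentration that stops growth completely.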

Tested on: NCI-H322M lung
Experiment: NCI-60 cell line screen, 48 h

SMILES	TGI	GI50 [µM]
COc1ccc(C=O)cc1O[Si](C)(C)C(C)(C)C	> 100 µM	–
C=CC(=O)N1CCC(Oc2cc3c(Nc4ccc(Cl)c(Cl)c4F)ncnc3cc2OC)CC1	14.1 µM and > 10 µM	< 0.001
CCOP(=Nc1ccc(N(C)C)cc1)(OCC)OCC	> 100 µM	–
CC(=O)C1C(c2ccccc2)C2(C)OC(=O)C(C#N)C12C (stereo unspecified)	> 100 µM	–
CCOC(=O)/C=C(\C(=O)OCC)n1cc(C)c(=O)n(Cc2cn(CCCCOC(C)=O)nn2)c1=O	46.2 µM	–
CCCC(C)c1ccc(OCCCCCCN2CCNCC2)cc1 (stereo unspecified)	11.8 µM	3.19
CC1(c2cccc(C3CC4(CCC3=O)OCCCCO4)c2)OCCO1 (stereo unspecified)	> 100 µM	–
Cc1ccc(S(=O)(=O)OC2CC=CC2)cc1	> 100 µM	–
CN(C)CCNC(=O)c1cccc2c(=O)c3ccccc3oc12	84.4 µM	–
CC(=O)OC1OC([C@H]2c3cccc(O)c3C(=O)c3c(O)cc(C)cc32)C(O)C(O)C1O (stereo partly specified)	1.17 µM	0.141
COc1cc2c(cc1O)c(O)cc1c3cc(OC)c(OC)cc3c[n+](C)c21	> 100 µM	–
O=c1oc2ccccc2c(Nc2ccc3c(c2)Sc2ccccc2O3)c1[N+](=O)[O-]	62 µM	–
CC(C)(C)c1cc([N+](=O)[O-])cc([N+](=O)[O-])c1O	> 10 µM	–
COC(=O)[C@@H]1C=C[C@H](OC2OC(COC(C)=O)C(OC(C)=O)C(OC(C)=O)C2OC(C)=O)n2c(=O)n(-c3ccccc3)c(=O)n21 (stereo partly specified)	28.5 µM	–
COc1ccc(-c2c(C(C)=O)c(-c3ccccc3)n(C3OC(CO)C(O)C(O)C3O)c(=S)c2C#N)cc1 (stereo unspecified)	> 100 µM	–
Oc1ccc2ccccc2c1N=Nc1cccc2ccccc12	> 100 µM	–
CCOC(=O)Nc1cc2c(c(N)n1)N=C(c1ccc(OC)cc1)CN2	17.2 µM	0.209
CCOC1C(Br)Cn2c(=O)c3cc4ccccc4cc3c(=O)n2C1C (stereo unspecified)	> 100 µM	–
O=C(/C=C/c1ccccc1)Nc1ncc(Cc2ccccc2Cl)s1	> 100 µM	0.776
N#Cc1c(-c2ccc(Cl)cc2)c2c(n(C3OC(CO)C(O)C(O)C3O)c1=S)CCCC2 (stereo unspecified)	> 100 µM	–
Cc1nc2ccc(Br)cc2c(=O)n1-c1nnc(C(C)(C)C)s1	> 10 µM	–
COc1ccc2c(c1)C(=O)CCc1cc(OC)c(OC)c(OC)c1-2	> 100 µM	< 0.01
NC(=Nc1ccccc1Cl)c1ccccc1N	> 100 µM	–
O=C(O)CSCCc1ccccc1	> 100 µM	–
CCC(CC)NC1=C(NC(C)=O)C(=O)c2ccccc2C1=O	> 50 µM	–

SMILES	TGI	GI50 [µM]
O=C1C(=O)c2ccccc2C(O)=C1C(C1=C(O)c2ccccc2C(=O)C1=O)c1ccc(Cl)cc1	31.9 µM	–
COC1OC(CS(=O)(=O)O)C(O)C(O)C1O (stereo unspecified)	> 100 µM	–
O=c1[nH]c2ccccc2cc1-c1nc2ccc(Cl)cc2[nH]1	> 100 µM	3.65
CC(=O)Oc1c(C)c(-c2ccccc2)c(C)c(-c2ccccc2)c1C(=S)c1ccccc1	> 100 µM	–
O=C(Oc1ccc[nH]c1=O)c1cc([N+](=O)[O-])cc([N+](=O)[O-])c1	> 100 µM	> 100
CC(=O)Oc1cc2c(cc1OC(C)=O)C1(C)CCC2(C)c2cc(OC(C)=O)c(OC(C)=O)cc21	> 100 µM	–
COc1ccc(C(C#N)NC23CC4CC(CC(C4)C2)C3)cc1 (stereo unspecified)	> 100 µM	–
C=C(C)C1CC2(C)C(C)CC(O)CC2C(OC(=O)C=C(C)C)C1O (stereo unspecified)	> 100 µM	–
COc1ccc2c(c1)OC1=C(C(=O)OC1)C2c1cc(OC)c2c(c1)OCCO2 (stereo unspecified)	> 100 µM	> 100
O=C(O)CCC1CCc2cccc(O)c2C1=O (stereo unspecified)	> 100 µM	–
O=C(O)c1ccc(CN2CCC(CN[C@@H]3C[C@H]3c3ccccc3)CC2)cc1	> 100 µM	> 100
CS(=O)(=O)C(C#N)c1nc2ccccc2nc1Cl (stereo unspecified)	> 100 µM	–
C[C@]12CC=CC(=O)[C@@]1(C)CCC(=O)C2	> 100 µM	–
O=C1NC(=S)N/C1=C\c1cccs1	> 100 µM	–
OC(CC1CCCCN1)c1ccc2c(c1)oc1ccccc12 (stereo unspecified)	> 100 µM	–
N[C@H](C(=O)O)[C@@H]1CC(Cl)=NO1	> 1000 µM	–
Nc1n[nH]c2cccc(C#Cc3cccc(NC(=O)c4cccc(C(F)(F)F)c4)c3)c12	14.4 µM	4.18
S=C(N/N=C/c1ccccn1)N1CCCCC1	> 100 µM	–
COC(=O)c1csc([C@@H](OC(=O)[C@H](C)[C@H](CCCC(C)(Cl)Cl)OC(=O)c2csc([C@H](O)CO)n2)C(C)C)n1	29.5 µM	–
C=C(C)C1CCC(C(=O)O)CC1 (stereo unspecified)	> 100 µM	–
O=c1oc(-c2ccccc2)cn1-c1ccccc1	> 100 µM	–
CC(C)NC(=O)OCc1c2c(n(C)c1COC(=O)NC(C)C)-c1cc(Cl)c(Cl)cc1CC2	> 100 µM	–
COc1ccc(Cn2c3c(cc(OC(C)=O)c2=O)Cc2ccccc2-3)cc1	49.3 µM	–
CC1(C)N=C(N)N=C(N)N1c1ccc(CCC(=O)Nc2ccc(S(=O)(=O)F)cc2)c(Cl)c1	> 100 µM	3.04
